From the supplement of paper PMC3334620
Over roughly 33,000 sequences, “E-score (-0.5 to 0.5)” has its median near -0.01; the highest 2% begin near 0.26. Some of the results follow.

Target: Ste12 (UniProt P13574)
Assay: PBM E-score (8-mer binding enrichment) (E-score (-0.5 to 0.5)); higher = stronger / more preferred TF binding; most listed sequences are background and not binding sites
Settings: protein concentration: 200 nM; construct: GST-DNA-binding domain
Procedure, shortened: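 Each ungapped eight-base word and its reverse complement, pooled, received an E-score from the Universal PBM Analysis Suite. Underlying scans, normalised with masliner, recorded fluorescent anti-GST bound to GST-tagged yeast transcription factors. These were applied at about 100-200 nM to universal all-10-mer Agilent arrays double-stranded by primer extension.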

| Sequence | PBM E-score |
| --- | --- |
| GAGAAAAC | 0.0888 |
| AAATTACC | 0.197 |
| AGAGTAGC | -0.137 |
| TGGTAACA | 0.0801 |
| GAAAACGA | -0.0839 |
| CTCAGAGC | -0.168 |
| AAAAAAAT | 0.337 |
| GTGCGGCA | -0.18 |
| ACAATAGC | 0.0018 |
| ACTTAAGA | 0.0409 |
| CCGTCTGA | 0.0344 |
| CCGTTTGA | 0.056 |
| GGAACAAC | 0.108 |
| CCGCTCAC | -0.156 |
| ATCCTGCC | -0.0925 |
| ACGTTGGG | 0.0249 |
| GCTTACAC | -0.0301 |
| GAGGGAAC | -0.116 |
| GAGGTAAA | 0.334 |
| ACGGTATA | 0.0177 |
| GGAGAGCC | -0.0173 |
| AACGTGTC | -0.0223 |
| TCAGGAGA | 0.119 |
| CCGTAACG | -0.0913 |

| Sequence | PBM E-score |
| --- | --- |
| AAGTGAAA | 0.291 |
| CTACAACA | -0.0211 |
| ACTATTGC | 0.101 |
| GCGCACTA | -0.0313 |
| GCGCGCCC | 0.0387 |
| CCATGAAG | -0.0229 |
| ATAGACGA | -0.0718 |
| AGTTCAGA | 0.0176 |
| CGCTCACA | -0.0983 |
| AGGACCTG | -0.216 |
| ATCAGCTA | 0.0454 |
| CTAGCCCA | 0.0776 |
| CGATGACA | 0.00062 |
| CTGGCGGA | -0.0918 |
| AGGATGTC | -0.164 |
| GAAACATA | 0.433 |
| ACAATACT | 0.148 |
| AAGCTTCA | 0.0617 |
| CTAGGACA | -0.143 |
| CGCGAGTC | -0.172 |
| CGAGTGTA | -0.11 |
| ACACGGAT | 0.0195 |
| CCTATAGG | -0.0861 |
| CACCGCCC | 0.27 |

| Sequence | PBM E-score |
| --- | --- |
| CTTGCTGA | -0.103 |
| GTAAGGGA | 0.0319 |
| AAACGGGT | 0.184 |
| GCAAACCC | -0.0626 |
| AACGTTGC | 0.152 |
| AGCAGCGA | 0.0491 |
| ACGACATA | -0.127 |
| CTTAATCA | 0.183 |
| ATGACAAC | 0.00794 |
| AAGCGACT | -0.113 |
| GCTCAACA | -0.0854 |
| GAAACGTA | 0.325 |
| CCGAGGAC | 0.0114 |
| GAACAGCA | 0.0498 |
| ACAGTCGT | -0.0779 |
| GTGGCGAA | 0.108 |
| CGCGGCAC | -0.00599 |
| AAAATTCC | 0.208 |
| CACGAAGC | 0.029 |
| ACTTGCCT | -0.0482 |
| GTTTCCCA | 0.14 |
| GATGCGAC | 0.0455 |
| CCGACTTC | -0.126 |
| GCATTTGA | 0.116 |

| Sequence | PBM E-score |
| --- | --- |
| ACTTCGTC | -0.13 |
| AGTTCCGA | 0.00275 |
| ACGGGGTA | -0.0388 |
| GGTTGTCA | -0.0244 |
| AGGACCTC | -0.00335 |
| AAGACTCT | -0.00466 |
| TGCATAAA | 0.254 |
| CCGCCTGC | -0.154 |
| CCACTCAA | 0.0727 |
| CTACCACA | 0.0376 |
| CATGGCGA | -0.0824 |
| ATGTTGGG | -0.078 |
| ATATGACA | 0.072 |
| CCAGCTGA | -0.0788 |
| CATAAAAC | 0.28 |
| AGGAAGGA | -0.226 |
| AACCCTTA | -0.00535 |
| TACAGCAA | 0.0552 |
| CGGGTTCC | -0.197 |
| AACTGAAC | 0.0813 |
| ATTCGACA | -0.0493 |
| AGGACGGC | -0.202 |
